Among all 390,000 compounds or so, about 910 (0.23%) were called active. Not shown: some 5% with an inconclusive outcome. Calls come from the whole dose curve; as a rule, active = well fitted inhibition curve with a large enough effect; inconclusive = small, poorly fitted or top-dose-only effect; inactive = no such curve, though single readings can be large or run the other way. The list shows a part of the results, in another mix than the full data.
Each compound was assayed against Ubiquitin carboxyl-terminal hydrolase 1 (Homo sapiens) (UniProt O94782) (assay: Inhibitors of USP1/UAF1: Primary Screen). Conditions: recombinant USP1/UAF1, Ub-Rhodamine cleavage fluorescence; activity change, negative = inhibition: at 57.1 µM (top of the series).
In short: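 In this screen, compounds sit with the deubiquitinase complex (1nM) for 15 min at room temperature before Ub-Rho is added at 150nM final. Fluorescence rise is then followed for 6 reads every 60 seconds.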
% is set by controls: 0 for no effect and ±100 for the full control effect; potency is the fitted concentration of half-maximal effect.
Note: nearly all actives have a fitted effect of over 60% in size.

Chain of UniProt O94782 (O94782 whole entry, looked up): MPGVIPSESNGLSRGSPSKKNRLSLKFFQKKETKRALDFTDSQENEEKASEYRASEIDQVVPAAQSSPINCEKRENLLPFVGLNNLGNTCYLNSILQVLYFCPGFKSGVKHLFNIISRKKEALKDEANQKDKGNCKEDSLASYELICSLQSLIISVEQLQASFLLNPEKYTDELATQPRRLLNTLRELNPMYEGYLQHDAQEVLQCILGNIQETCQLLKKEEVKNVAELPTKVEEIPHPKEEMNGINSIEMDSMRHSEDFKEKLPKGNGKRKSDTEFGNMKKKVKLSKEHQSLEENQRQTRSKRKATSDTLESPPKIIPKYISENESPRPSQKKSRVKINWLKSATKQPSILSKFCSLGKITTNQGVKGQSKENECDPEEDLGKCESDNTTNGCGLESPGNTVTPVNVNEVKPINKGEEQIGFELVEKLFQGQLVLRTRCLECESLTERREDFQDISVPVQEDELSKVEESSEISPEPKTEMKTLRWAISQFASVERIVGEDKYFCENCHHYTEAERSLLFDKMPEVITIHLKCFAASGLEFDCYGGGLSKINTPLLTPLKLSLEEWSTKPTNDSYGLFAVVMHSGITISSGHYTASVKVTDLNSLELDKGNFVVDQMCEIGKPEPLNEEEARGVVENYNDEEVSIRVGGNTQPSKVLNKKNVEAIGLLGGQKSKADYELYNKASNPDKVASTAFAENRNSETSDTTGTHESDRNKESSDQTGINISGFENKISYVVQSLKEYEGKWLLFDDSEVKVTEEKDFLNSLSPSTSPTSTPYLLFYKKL

SMILES | activity change, negative = inhibition | Potency
CCCNC(=O)CCn1nc(-c2ccc(C)cc2)c2ccccc2c1=O | inactive: -18.2% | –
CCC[C@H]1CCCC/C=C\CCCC(=O)OCCN1C(=O)OC(C)(C)C | inactive: -2.42% | –
CCNc1cccc2c1C(=O)N(C)C2=O | – | active: 15.8 µM
O=C1/C(=C/c2ccc(N3CCOCC3)o2)SC(=Nc2ccccc2)N1CCc1c[nH]c2ccccc12 | inactive: 49.9% | –
Nc1ccc2nc3c(=O)[nH]c(=S)[nH]c3nc2c1 | – | active: 28.2 µM
O=C(N[C@H]1C/C=C\C[C@@H](CC(=O)N(CCO)Cc2ccccc2)C(=O)N[C@H](Cc2c[nH]c3ccccc23)COC1=O)OCC1c2ccccc2-c2ccccc21 | inactive: -14.1% | –
C=CC[C@@H](CC(=O)N[C@@H](CO)Cc1ccccc1)C(=O)N[C@H](COC(=O)[C@H](CC=C)CC(=O)OC(C)(C)C)Cc1ccccc1 | inactive: -25.7% | –
C[C@@H]1CN([C@H](C)CO)C(=O)c2cc(NC(=O)NC3CCCCC3)ccc2O[C@H]1CN(C)S(C)(=O)=O | inactive: -18.8% | –
COC(=O)C1=C(C)NC(C)=C(C(=O)OC)C1C(=O)OCC(=O)N1c2ccccc2CC1C (stereo not drawn) | inactive: -11.6% | –
CCc1ccc(-c2cc(C)no2)cc1S(=O)(=O)Nc1ccc(C)cn1 | inactive: -8.73% | –
O=c1[nH]c(N2CCOCC2)cc2ccccc12 | – | active: 10 µM
CCN(CC)c1ccc(/C=C(/C#N)c2nc3ccccc3[nH]2)c(OC(C)C)c1 | inactive: 65.5% | –
COC(=O)c1cc(S(=O)(=O)N2CCN(c3ccc(F)cc3)CC2)cn1C | inactive: -6.99% | –
C[C@@H]1CN([C@H](C)CO)C(=O)CCCn2nncc2CO[C@@H]1CN(C)C(=O)c1ccc(N2CCN(C)CC2)cc1 | inactive: -18.9% | –
CC1CN(c2nc3ccccc3nc2C(C#N)C(=O)NCc2ccc3c(c2)OCO3)CC(C)O1 (stereo not drawn) | inactive: 30.9% | –
C[C@H](CO)NC(=O)c1nc[nH]c1C(=O)N[C@@H](C)c1ccccc1 | inactive: -15.4% | –
CC(=O)Nc1ccc(NC(=O)C(C)OC(=O)/C(C#N)=C/c2ccc(N(C)C)cc2)cc1 (stereo not drawn) | inactive: 160% | –
C/C(=N\Nc1ccc(C(=O)c2c(C)cc3ccccn23)cc1[N+](=O)[O-])c1ccc(O)cc1 | inactive: -10% | –
COC(=O)[C@H]1C[C@@H]1[C@H](NC(=O)c1cccnc1)c1ccccc1 | inactive: -14.7% | –
COC(=O)c1c(-c2ccccc2)c(-c2ccccc2)nn(C)c1=O | – | inactive
C[C@@H]1O[C@@H](O[C@H]2[C@H](Oc3cc(O)c4c(c3)O[C@H](c3ccc(O)cc3)CC4=O)O[C@H](CO)[C@@H](O)[C@@H]2O)[C@H](O)[C@H](O)[C@H]1O | inactive: -30.1% | –
C[C@H]1CN([C@@H](C)CO)C(=O)CCCn2nncc2CO[C@H]1CN(C)C(=O)c1ccc2ccn(C)c2c1 | inactive: -24.4% | –
CN1CCC23c4ccccc4NC1C21CCN(C)C3Nc2ccccc21 | inactive: -14.9% | –

Source: PubChem BioAssay AID743255 (National Center for Advancing Translational Sciences (NCATS), 2014)
